Assay results as given in the supplement of paper PMC8728848.
Some of the results follow.

Columns and labels:
Experiment in all cases: glycan array binding signal (z-score within array); higher = stronger binding
Conditions in all cases: glycan notation: IUPAC condensed, linker removed
[1] = target: Neu5Ac(a2-3)Gal(b1-3)]Neu5Ac(a2-3)Gal(b1-4)]GlcNAc
In short: (§1)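 Negative Z-scores can be read as non-binding. The Z-score is calculated within each array and then averaged across arrays of one protein sequence at different concentrations or buffers and across linkers. Arrays, 3228 in all, were curated from the Consortium for Functional Glycomics database and kept only where the protein sequence was available.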

[2] = target: Neu5Ac(a2-3)Gal(b1-4)Glc
In short: as §1

[3] = target: Neu5Ac(a2-3)Gal(b1-4)GlcNAc
In short: as §1

[4] = target: Neu5Ac(a2-3)Gal(b1-4)GlcNAc(b1-2)Man
In short: as §1

[5] = target: Neu5Ac(a2-3)Gal(b1-4)GlcNAc(b1-2)Man(a1-3)[GlcNAc(b1-4)][Neu5Ac(a2-3)Gal(b1-4)GlcNAc(b1-2)Man(a1-6)]Man(b1-4)GlcNAc(b1-4)GlcNAc
In short: as §1

[6] = target: Neu5Ac(a2-3)Gal(b1-4)GlcNAc(b1-2)Man(a1-3)[Neu5Ac(a2-3)Gal(b1-4)GlcNAc(b1-2)Man(a1-6)]Man(b1-4)GlcNAc(b1-4)GlcNAc
In short: as §1

[7] = target: Neu5Ac(a2-3)Gal(b1-4)GlcNAc(b1-2)Man(a1-3)[Neu5Ac(a2-3)Gal(b1-4)GlcNAc(b1-2)Man(a1-6)]Man(b1-4)GlcNAc(b1-4)[Fuc(a1-6)]GlcNAc
In short: as §1

[8] = target: Neu5Ac(a2-3)Gal(b1-4)GlcNAc(b1-2)Man(a1-3)[Neu5Ac(a2-6)Gal(b1-4)GlcNAc(b1-2)Man(a1-6)]Man(b1-4)GlcNAc(b1-4)GlcNAc
In short: as §1

[9] = target: Neu5Ac(a2-3)Gal(b1-4)GlcNAc(b1-2)[Neu5Ac(a2-3)Gal(b1-4)GlcNAc(b1-4)]Man(a1-3)[GlcNAc(b1-4)][Neu5Ac(a2-3)Gal(b1-4)GlcNAc(b1-2)[Neu5Ac(a2-3)Gal(b1-4)GlcNAc(b1-6)]Man(a1-6)]Man(b1-4)GlcNAc(b1-4)GlcNAc
In short: as §1

[10] = target: Neu5Ac(a2-3)Gal(b1-4)GlcNAc(b1-2)[Neu5Ac(a2-3)Gal(b1-4)GlcNAc(b1-4)]Man(a1-3)[GlcNAc(b1-4)][Neu5Ac(a2-3)Gal(b1-4)GlcNAc(b1-4)Man(a1-6)]Man(b1-4)GlcNAc(b1-4)GlcNAc
In short: as §1

[11] = target: Neu5Ac(a2-3)Gal(b1-4)GlcNAc(b1-2)[Neu5Ac(a2-3)Gal(b1-4)GlcNAc(b1-6)]Man(a1-6)[Neu5Ac(a2-3)Gal(b1-4)GlcNAc(b1-2)Man(a1-3)][GlcNAc(b1-4)]Man(b1-4)GlcNAc(b1-4)GlcNAc
In short: as §1

[12] = target: Neu5Ac(a2-3)Gal(b1-4)GlcNAc(b1-3)Gal
In short: as §1

[13] = target: Neu5Ac(a2-3)Gal(b1-4)GlcNAc(b1-3)Gal(b1-3)GlcNAc
In short: as §1

[14] = target: Neu5Ac(a2-3)Gal(b1-4)GlcNAc(b1-3)Gal(b1-4)GlcNAc
In short: as §1

[15] = target: Neu5Ac(a2-3)Gal(b1-4)GlcNAc(b1-3)Gal(b1-4)GlcNAc(b1-2)Man(a1-3)[Neu5Ac(a2-3)Gal(b1-4)GlcNAc(b1-3)Gal(b1-4)GlcNAc(b1-2)Man(a1-6)]Man(b1-4)GlcNAc(b1-4)GlcNAc
In short: as §1

[16] = target: Neu5Ac(a2-3)Gal(b1-4)GlcNAc(b1-3)Gal(b1-4)GlcNAc(b1-3)Gal(b1-4)GlcNAc
In short: as §1

[17] = target: Neu5Ac(a2-3)Gal(b1-4)GlcNAc(b1-3)Gal(b1-4)GlcNAc(b1-3)Gal(b1-4)GlcNAc(b1-2)Man(a1-3)[Neu5Ac(a2-3)Gal(b1-4)GlcNAc(b1-3)Gal(b1-4)GlcNAc(b1-3)Gal(b1-4)GlcNAc(b1-2)Man(a1-6)]GalNAc
In short: as §1

[18] = target: Neu5Ac(a2-3)Gal(b1-4)GlcNAc(b1-3)Gal(b1-4)GlcNAc(b1-3)GalNAc
In short: as §1

[19] = target: Neu5Ac(a2-3)Gal(b1-4)GlcNAc(b1-3)Gal(b1-4)GlcNAc(b1-3)[Neu5Ac(a2-3)Gal(b1-4)GlcNAc(b1-3)Gal(b1-4)GlcNAc(b1-6)]GalNAc
In short: as §1

[20] = target: Neu5Ac(a2-3)Gal(b1-4)GlcNAc(b1-3)Gal(b1-4)GlcNAc(b1-6)[Gal(b1-3)]GalNAc
In short: as §1

[21] = target: Neu5Ac(a2-3)Gal(b1-4)GlcNAc(b1-3)Gal(b1-4)[Fuc(a1-3)]GlcNAc
In short: as §1

[22] = target: Neu5Ac(a2-3)Gal(b1-4)GlcNAc(b1-3)GalNAc
In short: as §1

[23] = target: Neu5Ac(a2-3)Gal(b1-4)GlcNAc(b1-3)[Neu5Ac(a2-3)Gal(b1-4)GlcNAc(b1-6)]GalNAc
In short: as §1

[24] = target: Neu5Ac(a2-3)Gal(b1-4)GlcNAc(b1-6)GalNAc
In short: as §1

[25] = target: Neu5Ac(a2-3)Gal(b1-4)GlcNAc(b1-6)[Gal(b1-3)]GalNAc
In short: as §1

[26] = target: Neu5Ac(a2-3)Gal(b1-4)GlcNAc(b1-6)[Neu5Ac(a2-3)Gal(b1-3)]GalNAc
In short: as §1

[27] = target: Neu5Ac(a2-3)Gal(b1-4)GlcNAc6S
In short: as §1

[28] = target: Neu5Ac(a2-3)Gal(b1-4)[Fuc(a1-3)]GlcNAc
In short: as §1

[29] = target: Neu5Ac(a2-3)Gal(b1-4)[Fuc(a1-3)]GlcNAc(b1-2)Man
In short: as §1

[30] = target: Neu5Ac(a2-3)Gal(b1-4)[Fuc(a1-3)]GlcNAc(b1-3)Gal
In short: as §1

[31] = target: Neu5Ac(a2-3)Gal(b1-4)[Fuc(a1-3)]GlcNAc(b1-3)Gal(b1-4)GlcNAc
In short: as §1

[32] = target: Neu5Ac(a2-3)Gal(b1-4)[Fuc(a1-3)]GlcNAc(b1-3)Gal(b1-4)[Fuc(a1-3)]GlcNAc(b1-3)Gal(b1-4)[Fuc(a1-3)]GlcNAc
In short: as §1

[33] = target: Neu5Ac(a2-3)Gal(b1-4)[Fuc(a1-3)]GlcNAc(b1-3)GalNAc
In short: as §1

[34] = target: Neu5Ac(a2-3)Gal(b1-4)[Fuc(a1-3)]GlcNAc(b1-6)[Gal(b1-3)]GalNAc
In short: as §1

[35] = target: Neu5Ac(a2-3)Gal(b1-4)[Fuc(a1-3)]GlcNAc(b1-6)[Neu5Ac(a2-3)Gal(b1-3)]GalNAc
In short: as §1

[36] = target: Neu5Ac(a2-3)Gal(b1-4)[Fuc(a1-3)]GlcNAc6S
In short: as §1

[37] = target: Neu5Ac(a2-3)Gal6S(b1-4)GlcNAc
In short: as §1

[38] = target: Neu5Ac(a2-3)Gal6S(b1-4)[Fuc(a1-3)]GlcNAc
In short: as §1

B1: Epa12 (Candida glabrata) (protein)
chain: MGSSHHHHHHSSGLVPRGSHMLEPDNSLQIFDSFLSNPSKYPLGCSPKITNPKKGLSMELYSYPYRKKGSHPCWDPAYLDPNFPRVGYKKNKLIARVDGVSGDINFNFHPKRQCTPIADYLPPNFNYNEPITTTNFTMLLYGYFKPKVTGLHTFDISADDLLFMNFGAGNAFDCCRRDSTADTFGNYVAWAIWGRRIVRNKLTVRLDKGIYYPLRLFFNNRDYYGQMRLTFKTEHGSERITDFSDYFFSVDDTSEGCPGLITYESECADVKSSTVLETDYITIQAEKE
glycan array binding signal (z-score) [1]: -0.365 | glycan array binding signal (z-score) [2]: -0.204 | glycan array binding signal (z-score) [3]: -0.321 | glycan array binding signal (z-score) [4]: -0.131 | glycan array binding signal (z-score) [5]: -0.307 | glycan array binding signal (z-score) [6]: -0.322 | glycan array binding signal (z-score) [7]: -0.361 | glycan array binding signal (z-score) [8]: -0.367 | glycan array binding signal (z-score) [9]: -0.406 | glycan array binding signal (z-score) [10]: -0.361 | glycan array binding signal (z-score) [11]: -0.401 | glycan array binding signal (z-score) [12]: -0.315 | glycan array binding signal (z-score) [13]: -0.366 | glycan array binding signal (z-score) [14]: -0.324 | glycan array binding signal (z-score) [15]: -0.038 | glycan array binding signal (z-score) [16]: -0.254 | glycan array binding signal (z-score) [17]: -0.239 | glycan array binding signal (z-score) [18]: -0.275 | glycan array binding signal (z-score) [19]: -0.296 | glycan array binding signal (z-score) [20]: -0.298 | glycan array binding signal (z-score) [21]: -0.658 | glycan array binding signal (z-score) [22]: -0.373 | glycan array binding signal (z-score) [23]: -0.304 | glycan array binding signal (z-score) [24]: -0.311 | glycan array binding signal (z-score) [25]: -0.21 | glycan array binding signal (z-score) [26]: -0.387 | glycan array binding signal (z-score) [27]: -0.262 | glycan array binding signal (z-score) [28]: -0.322 | glycan array binding signal (z-score) [29]: -0.321 | glycan array binding signal (z-score) [30]: -0.298 | glycan array binding signal (z-score) [31]: -0.251 | glycan array binding signal (z-score) [32]: -0.37 | glycan array binding signal (z-score) [33]: -0.242 | glycan array binding signal (z-score) [34]: -0.245 | glycan array binding signal (z-score) [35]: -0.261 | glycan array binding signal (z-score) [36]: -0.311 | glycan array binding signal (z-score) [37]: 0.562 | glycan array binding signal (z-score) [38]: -0.338
